{"source": "the supplement of paper PMC9446081", "note": "Hit rate of the full screen: of about 39,000 compounds, about 220 (0.56%) showed activity. The list shows a part of the results.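 Also: static incubation at 37 °C against the wild-type strain, values averaged over two biological replicates.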", "data": [{"tested_on": "Escherichia coli K-12 BW25113", "assay": "relative growth (OD600 normalised to plate interquartile mean) (fraction); higher = less growth inhibition, active = 0.2 or less", "settings": "50 µM; LB; incubation time: overnight (16-24 h)", "values": [{"compound": "COCC(=O)N1C[C@H](C)[C@H](OC)CN(C)C(=O)c2cc(NC(=O)c3ccc(F)cc3)ccc2OC[C@H]1C", "relative growth": "inactive: 1.01"}, {"compound": "C[C@@H]1CN([C@@H](C)CO)C(=O)c2cccc(NC(=O)c3ccc(-c4nccs4)cc3)c2O[C@@H]1CN(C)S(=O)(=O)c1cn(C)cn1", "relative growth": "inactive: 1.02"}, {"compound": "C[C@H](CO)N1C[C@H](C)[C@H](CN(C)C(=O)Nc2cccc3ccccc23)OCCCC[C@H](C)Oc2ccc(NC(=O)C3CCCCC3)cc2C1=O", "relative growth": "inactive: 1.02"}, {"compound": "CCc1nc2ccc(C(=O)Nc3ccc(OC)c(OC)c3)cn2c1N(CC)Cc1cccc(Br)c1", "relative growth": "inactive: 1"}, {"compound": "C[C@@H]1CCCCO[C@@H](CN(C)S(=O)(=O)c2ccc(Cl)cc2)[C@H](C)CN([C@H](C)CO)C(=O)c2cc(NC(=O)c3ccccc3)ccc2O1", "relative growth": "inactive: 1.03"}, {"compound": "C[C@H]1CN([C@@H](C)CO)C(=O)c2cccc(NC(=O)c3ccc(-c4nccs4)cc3)c2O[C@@H]1CN(C)Cc1ccccc1", "relative growth": "inactive: 1.03"}, {"compound": "COCC#Cc1cnc2c(c1)C(=O)N([C@@H](C)CO)C[C@H](C)[C@H](CN(C)S(=O)(=O)c1cn(C)cn1)O2", "relative growth": "inactive: 0.978"}, {"compound": "CN1C=C(C(=O)OCCS(C)(=O)=O)C(C(=O)OCCS(C)(=O)=O)=CC(c2ccc(CO)cc2)=C[C@@H]1C1CC1", "relative growth": "inactive: 1.02"}, {"compound": "C[C@H](CO)N1C[C@H](C)[C@@H](CN(C)C(=O)Cc2ccccc2)OCCCC[C@H](C)Oc2ccc(NC(=O)CCC(F)(F)F)cc2C1=O", "relative growth": "inactive: 1.04"}, {"compound": "C[C@@H]1CCCCO[C@H](CN(C)C(=O)C2CCCCC2)[C@@H](C)CN([C@H](C)CO)C(=O)c2cc(NC(=O)CCCCCC(=O)Nc3ccccc3N)ccc2O1", "relative growth": "inactive: 0.973"}, {"compound": "CCCN(C)C[C@@H]1OCCCC[C@H](C)Oc2ccc(NC(=O)C3CCCCC3)cc2C(=O)N([C@@H](C)CO)C[C@@H]1C", "relative growth": "inactive: 1"}, {"compound": "C[C@H](CO)N1C[C@H](C)[C@@H](CN(C)S(=O)(=O)c2ccc(-c3ccccc3)cc2)OCc2cn(nn2)CCCC1=O", "relative growth": "inactive: 1"}, {"compound": "COc1ccc(NC(=O)Nc2ccc3c(c2)C(=O)N([C@@H](C)CO)C[C@H](C)[C@@H](CN(C)S(=O)(=O)c2cccs2)OCCCC[C@H](C)O3)cc1", "relative growth": "inactive: 1.02"}, {"compound": "C[C@H]1CN([C@@H](C)CO)C(=O)c2cccc(NC(=O)Nc3ccc4c(c3)OCO4)c2O[C@H]1CN(C)Cc1ccc(-c2ccccc2)cc1", "relative growth": "inactive: 1.01"}, {"compound": "C[C@@H]1CN([C@@H](C)CO)C(=O)c2cc(NC(=O)Cc3cn(C)c4ccccc34)ccc2O[C@H]1CN(C)Cc1ccc(-c2ccccc2)cc1", "relative growth": "inactive: 0.989"}, {"compound": "C[C@H](CO)N1C[C@H](C)[C@@H](CN(C)Cc2ccccc2)Oc2ccc(NC(=O)Nc3ccc(C(F)(F)F)cc3)cc2CC1=O", "relative growth": "inactive: 0.985"}, {"compound": "C[C@@H]1CCCCO[C@@H](CN(C)S(=O)(=O)c2ccc(Cl)cc2)[C@@H](C)CN([C@@H](C)CO)C(=O)c2cc(NC(=O)Cc3ccccc3)ccc2O1", "relative growth": "inactive: 1.02"}, {"compound": "CC(=O)OC1CC2C(C)(C)C(O)CCC2(C)C2CCC3(C)C(=CC(=O)OC3c3ccoc3)C12C", "note": "(stereo not drawn) [3beta-HYDROXYDEOXODIHYDRODEOXYGEDUNIN]", "relative growth": "inactive: 0.964"}, {"compound": "C[C@@H]1CN([C@H](C)CO)C(=O)c2cc(NC(=O)CCCCCC(=O)Nc3ccccc3N)ccc2O[C@H]1CN(C)C(=O)Nc1ccc(C(F)(F)F)cc1", "relative growth": "inactive: 0.988"}, {"compound": "C[C@H]1CN([C@@H](C)CO)C(=O)c2cccc(NS(=O)(=O)c3cn(C)cn3)c2O[C@@H]1CN(C)S(=O)(=O)c1cn(C)cn1", "relative growth": "inactive: 1.01"}, {"compound": "CC(=O)N[C@H]1[C@H]([C@H](O)[C@H](O)CO)OC(C(=O)O)=C[C@@H]1NC(=N)N", "relative growth": "inactive: 0.991"}, {"compound": "O=C(C[C@@H]1CC[C@@H]2[C@H](COC[C@@H](O)CN2S(=O)(=O)c2ccccc2)O1)NCCN1CCCC1", "relative growth": "inactive: 0.994"}, {"compound": "Cn1cnc(S(=O)(=O)N[C@H]2CC[C@@H](CC(=O)N3CCN(c4ccccc4)CC3)O[C@@H]2CO)c1", "relative growth": "inactive: 0.986"}, {"compound": "C[C@@H]1CN([C@@H](C)CO)C(=O)Cc2cc(NS(=O)(=O)c3cccs3)ccc2O[C@@H]1CN(C)S(C)(=O)=O", "relative growth": "inactive: 0.987"}, {"compound": "O=C(C[C@@H]1CC=CC[C@H](NC(=O)OCC2c3ccccc3-c3ccccc32)C(=O)OC[C@@H](Cc2c[nH]c3ccccc23)NC1=O)N[C@@H](CO)Cc1ccccc1", "relative growth": "inactive: 0.992"}, {"compound": "C[C@@H]1CCCCO[C@@H](CN(C)Cc2ccccc2)[C@H](C)CN([C@@H](C)CO)C(=O)c2cc(NC(=O)Nc3ccc(C(F)(F)F)cc3)ccc2O1", "relative growth": "inactive: 1.04"}, {"compound": "COc1ccc(NC(=O)Nc2ccc3c(c2)C(=O)N([C@@H](C)CO)C[C@H](C)[C@H](CN(C)Cc2ccc(Oc4ccccc4)cc2)O3)cc1", "relative growth": "inactive: 0.989"}, {"compound": "C[C@@H]1CCCCO[C@@H](CN(C)C(=O)Nc2cccc3ccccc23)[C@H](C)CN([C@H](C)CO)C(=O)c2cc(NS(=O)(=O)c3ccccc3)ccc2O1", "relative growth": "inactive: 1.01"}, {"compound": "C[C@@H]1CN([C@@H](C)CO)S(=O)(=O)c2ccc(C#CC3(O)CCCC3)cc2O[C@H]1CN(C)C(=O)c1cccnc1", "relative growth": "inactive: 1"}, {"compound": "Cc1ccc(NC(=O)c2ccc(CN3CC[C@H](N(C)C)C3)c(C(F)(F)F)c2)cc1Nc1nccc(-c2cncnc2)n1", "relative growth": "inactive: 0.999"}, {"compound": "COc1ccc(NC(=O)Nc2ccc3c(c2)C(=O)N([C@H](C)CO)C[C@H](C)[C@H](CN(C)C(=O)Nc2ccc(F)cc2)OCCCC[C@H](C)O3)cc1", "relative growth": "inactive: 1.02"}, {"compound": "C[C@H](CO)N1C[C@H](C)[C@H](CN(C)Cc2ccc(Oc3ccccc3)cc2)Oc2c(NC(=O)Nc3cccc4ccccc34)cccc2C1=O", "relative growth": "inactive: 1.01"}, {"compound": "COCC(=O)Nc1ccc2c(c1)C(=O)N(C)[C@@H]1CC[C@H](CC(=O)N3CCc4ccccc4C3)O[C@@H]1CO2", "relative growth": "inactive: 1.02"}, {"compound": "COc1ccc(/C=C/CN2CCC(C(=O)N[C@@H](c3ccc(-c4ccccc4)cc3)c3cnccn3)CC2)cc1", "relative growth": "inactive: 0.92"}, {"compound": "COc1ccc(NC(=O)N(C)C[C@@H]2Oc3ncc(C#CCN(C)C)cc3C(=O)N([C@@H](C)CO)C[C@H]2C)cc1", "relative growth": "inactive: 0.981"}, {"compound": "C[C@H](CO)N1C[C@H](C)[C@@H](CN(C)Cc2ccncc2)Oc2ccc(NS(=O)(=O)c3cccs3)cc2CC1=O", "relative growth": "inactive: 1.05"}, {"compound": "O[C@H]1[C@H](O)[C@@H](O)[C@H]2O[C@@H]2[C@@H]1O", "relative growth": "inactive: 0.997"}, {"compound": "Nc1nc(=O)c2[nH]c(=O)cnc2[nH]1", "relative growth": "inactive: 0.992"}, {"compound": "CC(C)NC(=O)N(C)C[C@@H]1Oc2ccc(NC(=O)C3CCCCC3)cc2C(=O)N([C@@H](C)CO)C[C@H]1C", "relative growth": "inactive: 1.01"}, {"compound": "C[C@@H]1CCCCO[C@H](CN(C)Cc2ccncc2)[C@H](C)CN([C@@H](C)CO)C(=O)c2cc(NS(C)(=O)=O)ccc2O1", "relative growth": "inactive: 0.971"}, {"compound": "NCCC[C@H](NC(=O)[C@@H]1CCCN1C(=O)[C@@H]1CSSC[C@H](N)C(=O)N[C@@H](Cc2ccc(O)cc2)C(=O)N[C@@H](Cc2ccccc2)C(=O)N[C@@H](CCC(N)=O)C(=O)N[C@@H](CC(N)=O)C(=O)N1)C(=O)NCC(N)=O", "relative growth": "inactive: 0.98"}, {"compound": "CC=CCC(C)C(O)C1C(=O)NC(CC)C(=O)N(C)CC(=O)N(C)C(CC(C)C)C(=O)NC(C(C)C)C(=O)N(C)C(CC(C)C)C(=O)NC(C)C(=O)NC(C)C(=O)N(C)C(CC(C)C)C(=O)N(C)C(CC(C)C)C(=O)N(C)C(C(C)C)C(=O)N1C", "note": "(stereo not given)", "relative growth": "inactive: 1.05"}, {"compound": "C[C@@H]1CN([C@H](C)CO)C(=O)c2cccc(NC(=O)CCCCCC(=O)Nc3ccccc3N)c2O[C@@H]1CN(C)CC1CCCCC1", "relative growth": "inactive: 1.01"}, {"compound": "CC(C)NC(=O)N[C@H]1C=C[C@@H](CC(=O)O)O[C@@H]1CO", "relative growth": "inactive: 1.01"}, {"compound": "Cc1noc(C)c1S(=O)(=O)Nc1cccc2c1O[C@@H](CN(C)Cc1ccc(-c3ccccc3)cc1)[C@@H](C)CN([C@H](C)CO)C2=O", "relative growth": "inactive: 1.01"}, {"compound": "C[C@@H]1CN([C@H](C)CO)C(=O)Cc2cc(NC(=O)Cc3ccccc3)ccc2O[C@@H]1CN(C)S(C)(=O)=O", "relative growth": "inactive: 0.993"}, {"compound": "O=C(C[C@@H]1C[C@H]2c3cc(NC(=O)C4CCOCC4)ccc3O[C@H]2[C@@H](CO)O1)NCc1ccc(Cl)cc1", "relative growth": "inactive: 1.03"}, {"compound": "Cc1cccc(S(=O)(=O)N2C[C@@H](O)COC[C@@H]3O[C@@H](CC(=O)NCc4ccc5c(c4)OCO5)CC[C@H]32)c1", "relative growth": "inactive: 0.996"}, {"compound": "CN1CCN(C(=O)C[C@H]2CC[C@@H]3[C@@H](COc4ccc(NC(=O)c5cscn5)cc4C(=O)N3C)O2)CC1", "relative growth": "inactive: 1.02"}, {"compound": "COc1ccc(NC(=O)Nc2ccc3c(c2)CC(=O)N([C@@H](C)CO)C[C@H](C)[C@@H](CN(C)C(=O)Nc2cccc4ccccc24)O3)cc1", "relative growth": "inactive: 1.05"}, {"compound": "C[C@H]1CN([C@@H](C)CO)C(=O)Cc2cc(NC(=O)c3ccncc3)ccc2O[C@H]1CN(C)C(=O)Nc1ccc2c(c1)OCO2", "relative growth": "inactive: 0.917"}, {"compound": "COCC(=O)N1C[C@@H](C)[C@H](OC)CN(C)C(=O)c2cc(NC(=O)Nc3ccccc3)ccc2OC[C@@H]1C", "relative growth": "inactive: 0.995"}, {"compound": "COc1ccccc1S(=O)(=O)N[C@@H]1C=C[C@H](CC(=O)N2CCOCC2)O[C@@H]1CO", "relative growth": "inactive: 0.97"}, {"compound": "NC[C@H]1CC[C@H](C(=O)N2CCC(c3ccncc3)CC2)CC1", "relative growth": "inactive: 1.03"}, {"compound": "C[C@@H]1CN([C@@H](C)CO)C(=O)c2cc(NS(=O)(=O)c3cn(C)cn3)ccc2O[C@@H]1CN(C)C(=O)Nc1ccc(F)cc1", "relative growth": "inactive: 0.906"}]}]}
